Assay results from patent publication US7034035B2, “Fungicidal mono-, bi-, and tri-cycloheteroalkyl amides and their compositions, methods of use and preparation” (priority 1999, dated 2006).

These compounds were tested on Plasmopara viticola—PLASVI (assay: whole plant or invertebrate). Settings: 24 h, read-out: PLASVI in vivo 1 Day Protectant.

Question: `Cc1ccnc(C(=O)NC2C(=O)OC(=O)[C@H](Cc3ccccc3)[C@@H](OC(=O)C(C)C)[C@H](C)OC2=O)c1O` (some centres unmarked) [Compound 237] was tested. Which pest or weed control at 100 ppm did it give?
Answer: < 25%

Question: For `COc1ccnc(C(=O)NCC#Cc2ccccc2)c1O` [Compound 240], which pest or weed control at 100 ppm is on record?
Answer: 75 to 100%

Question: With `COc1ccnc(C(=O)NC2CC(C)(C)C(OC(=O)CC(C)C)C(C)(C)C2)c1O` (centres unmarked) [Compound 267] as the compound, how does the pest or weed control at 100 ppm read?
Answer: 75 to 100%

Question: `COc1ccnc(C(=O)NC2CC(C)(C)C(OC(=O)c3ccccc3)C(C)(C)C2)c1O` (centres unmarked) [Compound 268] was tested. Which pest or weed control at 100 ppm did it give?
Answer: 75 to 100%

Question: For `COc1ccnc(C(=O)NC2CC(C)(C)C(OC(=O)c3cccc(Cl)n3)C(C)(C)C2)c1O` (centres unmarked) [Compound 269], which pest or weed control at 100 ppm is on record?
Answer: 75 to 100%

Question: For `COc1ccnc(C(=O)NC2CC(C)(C)C(Cl)C(Cl)[C@H](C)[C@H]2C)c1O` (some centres unmarked) [Compound 281], which pest or weed control at 100 ppm is on record?
Answer: 75 to 100%

Question: `COc1ccnc(C(=O)N[C@@H]2CC3CC2c2ccccc23)c1O` (some centres unmarked) [Compound 290] was tested. Which pest or weed control at 100 ppm did it give?
Answer: 75 to 100%

Question: With `COc1ccnc(C(=O)N[C@@H]2CC3CC2[C@@H](C(=O)OC(C)C)C3)c1O` (some centres unmarked) [Compound 298] as the compound, how does the pest or weed control at 100 ppm read?
Answer: 25 to 74%

Question: With `COc1ccnc(C(=O)N[C@@H]2CC3CC2[C@@H](c2ccccc2)[C@@H]3C(=O)OC(C)C)c1O` (some centres unmarked) [Compound 300] as the compound, how does the pest or weed control at 100 ppm read?
Answer: 75 to 100%

Question: How did the pest or weed control at 100 ppm turn out when `COc1ccnc(C(=O)N[C@@H]2CC3CC2C2C(=O)N(CC(C)C)C(=O)C32)c1O` (some centres unmarked) [Compound 303] was run?
Answer: 75 to 100%

Question: `COC(=O)C(COC(=O)C(CO[Si](C)(C)C(C)(C)C)Cc1ccccc1)NC(=O)c1nccc(OC)c1O` (centres unmarked) [Compound 350] was tested. Which pest or weed control at 100 ppm did it give?
Answer: < 25%

Question: For `C=C(C)C(=O)O[C@H]1[C@H](C)OC(=O)[C@@H](NC(=O)c2nccc(OC)c2O)COC(=O)[C@@H]1Cc1ccccc1` [Compound 386], which pest or weed control at 100 ppm is on record?
Answer: 75 to 100%

Question: How did the pest or weed control at 100 ppm turn out when `CCC(C)C(=O)O[C@H]1[C@H](C)OC(=O)[C@@H](NC(=O)c2nccc(OC)c2O)COC(=O)[C@@H]1Cc1ccccc1` (some centres unmarked) [Compound 389] was run?
Answer: < 25%

Question: `COc1ccnc(C(=O)N[C@H]2COC(=O)[C@H](Cc3ccccc3)[C@@H](OC(=O)CC(C)C)[C@H](C)OC2=O)c1O` [Compound 390] was tested. Which pest or weed control at 100 ppm did it give?
Answer: < 25%

Question: With `COc1ccnc(C(=O)NC2COC(=O)[C@H](Cc3ccccc3)[C@@H](OC(=O)C(C)C)[C@H](C)OC2=O)c1O` (some centres unmarked) [Compound 475] as the compound, how does the pest or weed control at 100 ppm read?
Answer: < 25%

Question: How did the pest or weed control at 100 ppm turn out when `CC(C)C(=O)O[C@H]1[C@H](C)OC(=O)[C@@H](NC(=O)c2cccnc2O)COC(=O)[C@@H]1Cc1ccccc1` [Compound 523] was run?
Answer: 25 to 74%

Question: Which pest or weed control at 100 ppm does the source give for `CC(C)C(=O)O[C@H]1[C@H](C)OC(=O)[C@@H](NC(=O)c2nccnc2O)COC(=O)[C@@H]1Cc1ccccc1` [Compound 534] here?
Answer: 75 to 100%

Question: With `CC1(C)CC(NC(=O)c2ccnnc2O)CC(C)(C)C1` [Compound 539] as the compound, how does the pest or weed control at 100 ppm read?
Answer: < 25%

Question: With `CC(C)C(=O)O[C@H]1[C@H](C)OC(=O)[C@@H](NC(=O)c2nscc2O)COC(=O)[C@@H]1Cc1ccccc1` [Compound 550] as the compound, how does the pest or weed control at 100 ppm read?
Answer: 75 to 100%

Question: For `CC1(C)CC(NC(=O)c2nsnc2O)CC(C)(C)C1` [Compound 552], which pest or weed control at 100 ppm is on record?
Answer: 75 to 100%

Question: With `CC(C)C(=O)O[C@H]1[C@H](C)OC(=O)[C@@H](NC(=O)c2nsnc2O)COC(=O)[C@@H]1Cc1ccccc1` [Compound 553] as the compound, how does the pest or weed control at 100 ppm read?
Answer: 75 to 100%

Question: For `Cn1cc(C(=O)NC2CC(C)(C)CC(C)(C)C2)c(O)n1` [Compound 557], which pest or weed control at 100 ppm is on record?
Answer: 75 to 100%

Question: `CC(C)C(=O)O[C@H]1[C@H](C)OC(=O)[C@@H](NC(=O)c2cn(C)nc2O)COC(=O)[C@@H]1Cc1ccccc1` [Compound 558] was tested. Which pest or weed control at 100 ppm did it give?
Answer: 75 to 100%

What follows are compounds tested on Plasmopara viticola—PLASVI (assay: not given). Settings: grape, 100 ppm, 24 hour protectant; control of fungal infection vs untreated plants.

Question: For `O=C(N[C@H]1CC2CC1[C@@H]1CCC[C@H]21)c1ncccc1O` (some centres unmarked) [Compound 206], which “PLASVI in vivo 1 Day Protectant” value is on record?
Answer: − (<25% control of fungal infection)

Question: Which “PLASVI in vivo 1 Day Protectant” value does the source give for `C[C@H]1C2CC([C@H]3CCC[C@@H]23)[C@@H]1NC(=O)c1ncccc1O` (some centres unmarked) [Compound 207] here?
Answer: − (<25% control of fungal infection)

Question: With “N-(3-Hydroxy-4-Methoxy-2-Pyridylcarbonyl)-2-Amino-2-Deoxy-alpha-D-Glucopyranose [Compound 334]” as the compound, how does the “PLASVI in vivo 1 Day Protectant” value read?
Answer: − (<25% control of fungal infection)
